Measurements taken from publication PMC6919601, “Identification of Plasmodium dipeptidyl aminopeptidase allosteric inhibitors by high throughput screening” (PLoS ONE, 2019).
About 230 (0.21%) of roughly 110,000 compounds showed an effect of 50% or more. The list shows a part of the results.

Target: DPAP1 (Plasmodium falciparum, UniProt Q8IIJ9)
Assay: primary screen, percent inhibition; read by cleavage of a fluorogenic dipeptide substrate; higher = more effect of the substance
Parameters: species or system P. falciparum D10 trophozoite lysates; single well
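Also: 30 min substrate incubation versus DMSO and 10 µM JCP410 controls.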

DPAP1, sequence (Q8IIJ9 whole entry, looked up): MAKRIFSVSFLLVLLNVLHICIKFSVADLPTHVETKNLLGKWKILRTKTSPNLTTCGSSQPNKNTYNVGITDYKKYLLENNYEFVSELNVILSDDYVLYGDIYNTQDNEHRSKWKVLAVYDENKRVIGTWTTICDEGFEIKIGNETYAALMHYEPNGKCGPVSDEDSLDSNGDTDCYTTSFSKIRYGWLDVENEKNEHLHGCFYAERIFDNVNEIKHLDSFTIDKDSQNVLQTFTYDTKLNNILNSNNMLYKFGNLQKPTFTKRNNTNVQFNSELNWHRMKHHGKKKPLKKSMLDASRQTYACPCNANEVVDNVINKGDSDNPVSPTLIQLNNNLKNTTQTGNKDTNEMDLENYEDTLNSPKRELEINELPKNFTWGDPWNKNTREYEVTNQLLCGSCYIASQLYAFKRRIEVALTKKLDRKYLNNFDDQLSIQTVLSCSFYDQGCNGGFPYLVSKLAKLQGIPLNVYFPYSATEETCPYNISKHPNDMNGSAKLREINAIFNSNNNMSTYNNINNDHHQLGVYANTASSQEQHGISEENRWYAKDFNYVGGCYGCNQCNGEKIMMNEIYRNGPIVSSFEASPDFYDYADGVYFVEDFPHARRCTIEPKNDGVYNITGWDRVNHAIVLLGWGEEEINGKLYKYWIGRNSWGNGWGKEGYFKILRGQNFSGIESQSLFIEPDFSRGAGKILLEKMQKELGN

Row | SMILES | % Inhibition @ 10 uM
1 | CC(=O)CC(Nc1ccccc1)c1ccccc1 (centres unmarked) | -8.51%
2 | CCOc1ccc2nc(NC(=O)CSc3nc(SC)ns3)sc2c1 | 5.12%
3 | COc1ccc(C2(C(=O)Nc3ccc(C(=O)Nc4cc(C)ccc4OC)cc3)CCOCC2)cc1 | 9.97%
4 | CCOC(=O)N1CCN(S(=O)(=O)c2ccc(C)c(C)c2)CC1 | 3.14%
5 | CC1=C(C(=O)Nc2cccc(F)c2)C(c2ccccc2Cl)C2=C(O)CC(C)(C)CC2=N1 (centres unmarked) | -0.941%
6 | CC[C@H](C)NC(=O)CCCc1nnc2n(C)c(=O)c3sccc3n12 | 0.0603%
7 | Cc1ccc(CNC(=O)c2ccc3nc(N4CCOCC4)sc3c2)cc1 | 31.8%
8 | Cc1nc2c(c(C)c1CCC(=O)NCCN1CCC(Cc3ccccc3)CC1)c(=O)n(C)c(=O)n2C | -3.1%
9 | Cc1ccc(C(=O)Nc2ccc(Cl)c(Cl)c2)cc1 | -3.04%
10 | O=C1c2ccccc2-c2c1cccc2C(=O)N1CCOCC1 | 0.147%
11 | COc1cc(OC)c(CNC2CCCCCC2)cc1Br | 7%
12 | C=CCOc1ccc(C(=O)C2=C(O)C(=O)N(CCN3CCOCC3)C2c2ccc(OC)cc2)c(C)c1 (centres unmarked) | 4.54%
13 | CCOC(=O)c1nnc2ccnn2c1N | 5.32%
14 | CCSc1ncc(Cl)c(C(=O)Nc2nnc(C)s2)n1 | -1.11%
15 | COc1cc(-c2nc3n(n2)C(c2ccc4c(c2)OCO4)C2=C(O)CCCC2=N3)cc(OC)c1OC (centres unmarked) | 3.59%
16 | N#Cc1c(C#N)c(-c2ccccc2)n(-c2ccccc2)c1N | 1.13%
17 | COc1ccc(CCN2C(=O)NC(NC(=O)c3ccc(F)cc3)(C(F)(F)F)C2=O)cc1OC (centres unmarked) | 0.413%
18 | CCC(C)NC(=O)C1CCN(C(=O)c2cnn(-c3ccccc3)c2-n2cccc2)CC1 (centres unmarked) | 3.4%
19 | CC12CN3CC(c4ccccc4)(CN(C1)C3c1ccc(OCc3ccccc3)cc1)C2=O (centres unmarked) | 0.627%
20 | CC1CCN(c2c(-c3ccc(C(C)C)cc3)c(=O)c2=O)CC1 | 0.274%
21 | COc1ccc(NC(=O)c2cccc(C(F)(F)F)c2)cc1 | -4.66%
22 | COc1ccc(NC(=O)C2C3C=CC(CC3)C2C(=O)O)cc1 (centres unmarked) | -1.88%
23 | COc1ccc(N(CC(=O)Nc2ccc(Cl)cc2)S(=O)(=O)c2ccccc2)cc1OC | 0.528%
24 | CCOc1cc(C2C(C#N)=C(N)Oc3[nH]nc(CC)c32)ccc1OCCN1CCOCC1 (centres unmarked) | 3.46%
25 | O=C(NC1CCN(Cc2ccccc2)CC1)[C@@H](c1ccccc1)N1Cc2ccccc2C1=O | -0.465%

Row | SMILES | % Inhibition @ 10 uM
26 | Cc1ccc2c(c1)C(SCC(=O)NC1CCCCC1)CC1(CCCC1)O2 (centres unmarked) | -0.971%
27 | CCc1nnc(NC(=O)C2CCN(c3ncnc4c3nc3n4CCCCC3)CC2)s1 | -0.238%
28 | O=C(Nc1cccnc1)c1ccc(C(F)(F)F)cc1 | 1.96%
29 | O=C(CNC(=S)N(Cc1ccc(F)cc1)C1CCCCC1)NCC1CCCO1 (centres unmarked) | -0.406%
30 | CCCCNC(=O)c1ccc(CS(=O)(=O)c2ccc(Br)cc2)o1 | 2.14%
31 | Cc1cc2ccccc2c(=O)n1CC(=O)NCC(=O)Nc1nc2ccccc2s1 | 3.61%
32 | O=C1C2C3C=CC(C3)C2C(=O)N1c1cccc(Cl)c1Cl (centres unmarked) | -8.42%
33 | CSc1ncc(C(=O)Nc2nccs2)c(C)n1 | -2.13%
34 | CCOC(=O)C1=C(CC)OC(N)=C(C#N)C1c1ccc(O)cc1 (centres unmarked) | -3.35%
35 | Clc1ccccc1N1CCN(Cc2cccs2)CC1 | -3.77%
36 | COc1ccc(C(=O)ON2C(=O)c3cccc4c(Cl)ccc(c34)C2=O)cc1 | 5.65%
37 | COCCCn1c(=N)c(C(=O)NCc2cccnc2)cc2c(=O)n3ccccc3nc21 | 3.6%
38 | CC(NC(=O)c1ccc(CN2CCc3ccccc3C2)cc1)c1ccccc1 (centres unmarked) | -2.13%
39 | O=C(NCCC1=CCCCC1)c1ccc(CS(=O)c2cccc(Cl)c2)o1 (centres unmarked) | 6.65%
40 | Cc1cc(C(F)(F)F)nc(SCc2ccc(C(=O)O)o2)n1 | -13.6%
41 | CCOC(=O)c1c(S(=O)(=O)NCCOC)c(C)n(C)c1C | -6.07%
42 | CC(=O)NC12CC3(C)CC(C)(CC(O)(C3)C1)C2 | -0.833%
43 | COc1ccc(C2C(C#N)=C(N)Oc3nc(O)nc(O)c32)c(OC)c1 (centres unmarked) | 3.25%
44 | Cc1nnc2c3ccccc3nc(NC3CCCCC3)n12 | -1.95%
45 | CCCCOC(=O)c1c(N)n(-c2ccc(C(=O)OCC)cc2)c2nc3ccccc3nc12 | 5.17%
46 | COc1cc(/C=C2/C(=O)NC(=O)N(C)C2=O)cc(Br)c1O | 2.18%
47 | CCCCOC(=O)c1ccc(N2CCCCC2)cc1 | -3.77%
48 | Cc1ccc2oc(C(=O)NC3CCS(=O)(=O)C3)cc(=O)c2c1 (centres unmarked) | 0.248%
49 | CC(C)(C)NC(=O)C(C)(C)Oc1ccc(Cl)cc1 | 0.793%
50 | O=C1/C(=C\c2ccc3c(c2)OCO3)CCC/C1=C\c1ccc2c(c1)OCO2 | -1.06%

Row | SMILES | % Inhibition @ 10 uM
51 | C=C(C)Cn1c(N2CCCCC2)nc2c1c(=O)n(C)c(=O)n2C | 0.635%
52 | Cc1ccc(C2C(C#N)C(=O)NC(=O)C2[n+]2ccccc2)cc1 (centres unmarked) | -1.07%
53 | O=C1S/C(=C\c2ccc(Br)o2)C(=O)N1CCOc1ccc(F)cc1 | 0.0999%
54 | CCN(CC)CCN(C)Cc1coc2ccc(C)cc2c1=O | 3.48%
55 | CCOC(=O)c1oc2c(CN3CCCC(C)C3)c(O)ccc2c(=O)c1-c1ccc(OC)cc1 (centres unmarked) | -2.91%
56 | COc1ccc(Br)cc1C1CC(=O)N2CN(C3CCCCC3)CSC2=C1C#N (centres unmarked) | 60.2%
57 | CCOc1cc(CNc2ncc(-c3ccc(Br)cc3)n2C)ccc1O | -2.91%
58 | COc1cc(/C=C2\NC(=O)N(Cc3ccc(Cl)cc3)C2=O)ccc1OCc1cccc(C(=O)O)c1 | 5.18%
59 | O=C(NC1CCCC1)C1CCCN(C(=O)c2cnn(-c3ccccc3)c2-n2cccc2)C1 (centres unmarked) | 1.38%
60 | CN1CCN(C(=O)C(Cc2ccccc2)N2Cc3ccccc3C2=O)CC1 (centres unmarked) | -7.33%
61 | CCN1CCN(C2CCN(C(C)=O)CC2)CC1 | -3.57%
62 | Cc1nc2ccccc2nc1SC(C(=O)O)c1ccccc1 (centres unmarked) | 7.49%
63 | CCNC(=O)CC1S/C(=N\c2cccc3ccccc23)N(C)C1=O (centres unmarked) | 0.35%
64 | Cc1cccc(-c2nc3n(n2)C(c2ccccc2)C2=C(O)CCCC2=N3)c1 (centres unmarked) | 0.275%
65 | Cc1ccc(Cl)cc1-n1nnc(-c2ccccc2)n1 | 1.67%
66 | O=C1NC(=O)C2(C(=O)N1)C(c1ccc(OC(F)F)cc1)NC(=O)NC2c1ccc(OC(F)F)cc1 (centres unmarked) | -5.33%
67 | CCOC(=O)N1CCN(CC(O)COCc2ccc(Cl)cc2)CC1 (centres unmarked) | -5.28%
68 | N#Cc1cn(CC(=O)Nc2ccc(Br)cc2)c2ccccc12 | -5.34%
69 | Cc1ccccc1CN1CCN(c2cccc(Cl)c2)CC1 | -5.91%
70 | Cc1cccc(CCNC(=O)CCc2c(C)nc3cc(-c4ccccc4)nn3c2C)c1 | 1.26%
71 | CC(C)Cc1ccc(C(=O)NCCOc2ccccc2)o1 | 1.76%
72 | CC(C)OCCCNC(=O)C(C)n1sc2ccccc2c1=O (centres unmarked) | -0.542%
73 | O=C(Nc1ccncc1)c1cc(-c2ccc(Br)cc2)nc2ccccc12 | 2.43%
74 | Cc1cc(C)c2c3c(sc2n1)C1(CCN(C(=O)c2ccccc2)CC1)C(C#N)=C(N)O3 | 3.93%
75 | COc1ccc(CN2C(=O)c3oc4ccc(Cl)cc4c(=O)c3C2c2ccc(O)cc2)cc1 (centres unmarked) | -5%

Row | SMILES | % Inhibition @ 10 uM
76 | CCCCCOC(=O)CSc1nnc(-c2ccccc2)o1 | 1.43%
77 | CCC[C@@H](NC(=O)[C@H](CC(C)C)c1cccc(-c2cccnc2)c1)C(=O)c1nc2ccccc2o1 | 6.03%
78 | CSc1nc2c(c(=O)[nH]c(=O)n2C)n1Cc1ccccc1 | -1.44%
79 | Fc1ccc(OCCCN2CCOCC2)cc1 | -2.12%
80 | Cc1nonc1NC(=O)C(C)C | -1.47%
81 | Cc1noc(C(=O)NC2CCCCC2)c1Cl | -3.45%
82 | O=C(NCc1ccc2c(c1)OCO2)c1cc2c(s1)CSC2 | 4.47%
83 | CN(Cc1ccccc1)C(=O)C(=O)c1c[nH]c2ccccc12 | 5.31%
84 | CC(CNC(=O)c1ccc(CSc2nc3ccncc3[nH]2)cc1)c1ccccc1 (centres unmarked) | -3.35%
85 | O=C(NC1CCCCCC1)c1ccc(CNc2c(NC3CCCCC3)c(=O)c2=O)cc1 | -4.04%
86 | C=CCn1c(=O)c(C(=O)Nc2nc(C34CC5CC(CC(C5)C3)C4)cs2)c(O)c2ccccc21 | 3.9%
87 | FC(F)Oc1ccccc1C1CC(c2ccc(Br)cc2)Nc2ncnn21 (centres unmarked) | -5.19%
88 | CN(C)CCNC(=O)c1ccc(CS(=O)Cc2ccc(Cl)cc2)o1 (centres unmarked) | -8.63%
89 | COc1ccc(-c2cc3cc4c(C)coc4cc3oc2=O)cc1 | -6.29%
90 | CS(=O)(=O)N(CC(=O)NC1CCCC1)c1ccc(Cl)c(C(F)(F)F)c1 | 0.643%
91 | CCOc1cc(-c2cc(N)n(S(=O)(=O)c3cccc4nsnc34)n2)cc(OCC)c1OCC | 0.66%
92 | C=CCN(C)C1CC(=O)N(c2ccc(C)c(Cl)c2)C1=O (centres unmarked) | -0.545%
93 | COc1ccc(NC(=O)CN(c2ccc(C)cc2)S(=O)(=O)c2ccc(F)cc2)cc1 | 9.33%
94 | Cc1ccc(-c2csc3nc(C)n(N)c(=O)c23)cc1 | -4.31%
95 | Cn1c2c(c(=O)n(C)c1=O)C(c1cccs1)C1C(=O)c3ccccc3C1=N2 (centres unmarked) | 2.03%
96 | COc1ccc(C2C(C(=O)N3CCC4(CC3)OCCO4)c3ccccc3C(=O)N2C)cc1 (centres unmarked) | -1.2%
97 | CN(C(=O)C1CCCN(S(=O)(=O)c2cccs2)C1)C1CCCCC1 (centres unmarked) | 4.15%
98 | COc1cccc(-c2nn(C)c3sc(C(=O)N4CCC5(CC4)OCCO5)cc23)c1 | 1.23%
